For 20 variants, self-cleavage results are on record in the RNAGym collection of RNA variant scans (doi:10.7554/elife.90254).

Sequences and labels used below:
B1: LINE1-full (parent)
chain: UACGUAGGUGGUUUUCCCCUGAUAGUGCUAAGGGGGCCUGGAAGUUUGGACUGGGCAGAGCUCAACACAGCGUGGCAAAGUGGCUGUGGCUAGACUGCCUCUCUGGAUUCCUCGUCACUCAGCAGGGCAUCUCUGAGAGAAAUGCC

Read counts are not given, so values of variants with three or more changes are uncertain.

Variants of B1 are the subject of this data set. The data set can be described thus: self-cleavage, relative activity (ratio to wild type); higher = more cleavage; in vitro, sequencing; the parent is a self-cleaving ribozyme.
Take UACGUUGGUGGUCUUCCCCUGAUAGUGCUAAGGGGGCCUGGAAGUUUGGACUGGGCAGAGCUCAACGCAGCGUGGCAAAGUGGCUGUGGCUAAACUGCCUCUCUGGAUUCCUCGUCACUCAGCAGGGCAUCUCUGAGAGAAAUGCC [A6U U13C A67G G93A]: the self-cleavage stood at 0.
Under UACGUUGGCGGUCUUCCCCUGAUAGUGCUAAGGGGGCCUGGAAGUUUGGACUGGGCAGAGCUCGACACAGCGUGGCAAAGUGGCUGUGGCUAGACUGCCUCUCUGGAUUCCUCGUCUCUCAGCAGGGCAUCUCUGAGAGAAAUGCC [A6U U9C U13C A64G A117U] stands 0.8.
Under UACGUUGGUGGUAUUCCCCUGAUAGUGCUAAGGGGGCCUGGGAGUUUGGACUGGGCAGAGCUCAACACAGCGUGGCAAAGUGGCUGUGGCUAGACUGCCUCUCUGGAUUCCUCGUCACUCAGCAGGGCAUCUCUGAGAGAAAUGCC [A6U U13A A42G] stands 1.53.
Consider UACGUUGGUGGUUUUCCCCUGAUAGUGCUAAGGGGGCCUGGAAGUUUGGACUGGGCAGAGCUCAACACAGCGUGGCAAAGUGGCUGUGGUUAGACUGCCUCUCCGGAUUCCUCGUCACUCAGCAGGGCAUCUCUGAGAGAAAUGCC [A6U C90U U104C], for which the self-cleavage came to 0.05.
The value for UACGUGGGUGGUUUUCCCCUGAUAGUGCUAAGGGGGCCUGGAAGUUUGGACUGGGCAGAGCUCAACACAGCGUGGCAAAGUGGCUGUGGCUAGACUGCCUCUCUGGAUUCCUCGUCACUCAGCAGGGCAUCCCUGAGAGAAAAGUC [A6G U132C U143A C145U] was 0.48; that for UACGUUGGUGGUUUUCCCCUGAUAGUGCUAAGGAGGCCUGGAAGUUUGGACUGGGCAGAGCUCAACACAGCGUGGCAAAGUGGCCGUGGCUAGACUGCCUCUCUGGAUUCCUCGUCACUCAGCAGGGCAUCUCUGAGAGAAAUGCC [A6U G34A U85C] was 0.17; that for UACGUGGGUGGUUUUCCCCUGAUAGUGCUAAGGGGGCCUGGAAGUUUGGACUGGGCAGAGCUCAACACAGCGUGGCAAAGUGGCUGUGGCUAGACUGCCUCUCCGGAUUCCUCGUCACUCAGCAGGGCACCUCUGAGAGAAAUGCC [A6G U104C U130C] was 0.
The value for UACGUUGGUAGUUUUCCCCUGAUAGUGCUAAGGGCGCCUGGAAGUUUGGACUGGGCAGAGCUCAACACAGCGUGGCAAAGUGGCUGUGGCUAGACUGCCUCUCUGGAUUCCUCGUCACUCAGCAGGGCAUCUCUGAGAGAAAUGCC [A6U G10A G35C] was 2.08; that for UACGUUGGUGGUUUUCCCCUGAUAGUGCUAAGGGGGCCUGGAAGUUUGGACUAGGCAGAGCUCAACACAGCGUGGCAAGGUGGCUGUGGCUAGACUGCCUCUCUGGAUUCCUCGUCUCUCAGCAGGGCAUCUCUGAGAGAAAUGCC [A6U G53A A79G A117U] was 1.68; that for UACGUUGGUGGUUUUCCCCUGAUAGUGCUAAGGGGGCCUGGAAGUUUGGACUGGGCAGAGCUCAAUACAGCGUGGCAAAGUGGCCGUGGCUAGACUGCCCCUCUGGAUUCCCCGUCACUCAGCAGGGCAUCUCUGAGAGAAAUGCC [A6U C66U U85C U100C U112C] was 0.04.
With UACGUUGGUGGUUUUCCCCUGAUAGUGCUAAGGGGACCUGGAAGUUUGGACUGGGCAGAGAUCAACACAGCGUGGCAAAGUGGCUGUGGCUAGACUGCCUCUCUGGAUUCCUCGCCACUCAGCAGGGCAUCUCUGAGAGAAAUGCC [A6U G36A C61A U115C], the self-cleavage is 0.07.
The value for UACGUGGGUGGUUUUCCCCUGAUAGUGCUAAGGGGGCCUGGAAGUUUGGACUGGGCAGAGCUCAACACAGCGUGGCAAAGUGGCUGUGGCUAGACUGCCUCUCUGGAUUCCCCGUCACUCAUCAGGGCAUCUCUGAGAGGAAUGCC [A6G U112C G122U A140G] was 1.21.
The value for UACGUUGGUGGUUUUCCCCUGAUAGUGCUAAGGGGGCCUGGGAGUUUGGACUGGGCAGAGCUCAACACAGCGUGGCAAAGUGGCUGUGGCUAGGCUGCCCCUCUGGAUUCCUCGUCACUCAGCAGGGCAUCUCUGAGAGAAGUGCC [A6U A42G A94G U100C A142G] was 0; that for UACGUUGGUGGUUUUCCCCUGAUAGUGCUAAGGGGGCCUGGAAGUUUGGACUGGGCAGAGCUCAACACAGCGUGGCAAAGUGGCUGUGGCUAGACUGCCUCUCUGGAUUCCUCGUCACUCAGCAGGGCUUCUCUGAGAGAAACGCC [A6U A129U U143C] was 0.82; that for UACGUUGGUGGUUUUCCCCUGAUAGUGCUAAGGGGGCCUGGAAGUUUGGGCUGGGCAGAGCUCAACACAGCGUGGCAAAGUGGCUGUGGCUAGACUGCCUCUCUGGAUUCCUCGUCACUCAGCAGGGCAUCUCUGAGAGAAACGCC [A6U A50G U143C] was 0.73.
Under UACGUUGGUGGUUUUCCCCUGGUAGUGCUAAGGGGGCCUGGAAGUUUGGACUGGGCAGAGCUUAACGCAGCGCGGCAAAGUGGCUGUGGCUAGACUGCCUCUCUGGAUUCCUCGUCACUCAGCAGGGCAUCUCUGAGAGAAAUGCC [A6U A22G C63U A67G U73C] stands 0.46; under UACGUUGGUGGUUUUCCCCUGAUAGUGCUAAGGGGGCCUGGAAGUUUGGACUGGGCAGAGCUCAACGCAGCGUGGCAAAGUGGCUGUGGCUAGACUGCCUCUCUGGAUUCCUCGUCACUCAGCAGGGCAUCCCUGAGAGAUAUGCC [A6U A67G U132C A141U], 0.69.
On to UACGUUGGUGGCUUUCCCCUGAUAGUGCUAAGGGGGCCUGGAAGUUUGGACUGGGCAGAGCUCUACACAGCGCGGCAAAGUGGCUGUGGCUAGACUGCCCCUCUGGAUUCCUCGUCACUCAGCAGGGCAUCUCUGAGAGAAAUGCC [A6U U12C A64U U73C U100C], for which the self-cleavage was 0.81.
The value for UACGUUGGUGGUUUUCCCCUGAUAGUGCUAAGGGGGCCUGGGAGUUUGGACUGGGCAGAGCCCUACACAGCGUGGCAAAGUGGCUGUGGCUAGACUGCCUCUCUGGAUUCCUCGUCACUCAGCAGGGCAUCUCUGAGAGAAAUGCC [A6U A42G U62C A64U] was 0.15; that for UACGUUGGUGGUUUUCCCCUGAUAGUGCUAAGGGGGCCUGGAAGUUUGGACUGGGCAGAGCUCAGCACAGCGUGGCAAAGUGGCUGUGGCUGGACUGCCACUCUGGAUUCCUCGUCACUCAGCAGGGCAUCUCUGAGUGAAAUGCC [A6U A65G A92G U100A A138U] was 0.27.
